Source: the supplement of paper PMC10338343
± gives the standard deviation. Over roughly 6,600 sequences, “pre-steady-state target cleavage rate” has its median near 0.07; the highest 2% begin near 0.72. The entries are a selection whose mix differs from that of the whole data set.

test system: MIWI (PIWIL1) piRISC loaded with Kctd7 piRNA (30 nt); test: pre-steady-state target cleavage rate (min^-1); MIWI and MILI are mouse PIWI proteins and EfPiwi is from a freshwater sponge; tags in brackets are library labels; higher = faster piRNA-guided slicing of the target; conditions: guide: Kctd7 piRNA 5'p-UGUUAAUCUCUCAGAGAAGGUGACAGUGAU; auxiliary factor: 500 nM mouse GTSF1
How it was run: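 Reactions were run for 0–8 or 0–960 min at 33 °C in HEPES–potassium acetate buffer, combining 1 nM active affinity-purified piRISC with one synthetic guide, […] transcribed, DNA-blocked target RNA library and, in some cases, 500 nM GTSF1 partner protein. Sequencing of uncleaved targets followed, with normalisation to depth and to weakly complementary targets. Three trials were pooled, k3 was capped at 0.0001 min^-1, and the pre-steady-state cleavage rate was taken from a burst-and-steady-state fit.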
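Note: 1 nM active piRISC with 0.1 nM target library at 33 °C single turnover.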

| Sequence | pre-steady-state target cleavage rate |
| --- | --- |
| UAGUGAGUCAGCUUCUCUGAGACAUUAACA | 0.0722 ± 0.011 |
| UAGUGAGUCACCUUCUGAGAGAGAUUAUGA | 0.00502 ± 0.0047 |
| UUCACUGUCACUUCUCUGAGAGAUUAACA | 0.54 ± 0.046 |
| UAGUGACACUCCUUCUCUGAGACAUUAACA | 0.088 ± 0.011 |
| UAGUGACAGUCCUUCUCUGAGAGAUUAAAA | 0.0154 ± 0.0051 |
| UAGUGACAGUGGAAGAGACUGAGGAUUAACA | < 0.0001 |
| AUCACUGUCAGCUUCACUGAGAGAUUAACA | 0.571 ± 0.035 |
| UUCAGACUCACCUUCUCUGAGAGAUAUUGA | 0.00803 ± 0.0019 |
| UAGUCUGUCACCUUCAGAGAGAGAUUAACA | 0.0128 ± 0.0072 |
| UAGUGAGUCACCAUCUCUGAGUGAUUAACA | 0.0219 ± 0.0055 |
| UAGUGACACAUCCUUCUCUGAGAGAUUAACA | 0.267 ± 0.026 |
| UAGUGUGUCACCUUCACUGACAGAUUAACA | 0.336 ± 0.032 |
| UAGUGAGUCUCCUUCUCUGAGACAUUAACA | 0.116 ± 0.015 |
| UAGACAGUCACCUUCUCUGUGAGAUUAACA | 0.247 ± 0.012 |
| UACACUGUCACCUUCUGAGAGAGAUUAACA | 0.0389 ± 0.0081 |
| AUCACUGUCACCAUCUCUGAGAGUUUAACA | 0.242 ± 0.036 |
| UAGUGACACACCUUCUCUGAGAGAUUAACA [g2:g22:cont:t1A] | 0.534 ± 0.036 |
| UAGUCUGUCACCUAGUCUGAGAGAUUAACA | 0.362 ± 0.026 |
| UUCACUGUCACCAAGUCUGAGAGAUUAACA | 0.181 ± 0.015 |
| UAGUGACUCAGCUUCUCUGAGAGAUUAACA | 0.189 ± 0.016 |
| UAGUGAGUCACCUUCUCUGAGAGAUGAACA | 0.193 ± 0.036 |
| UAGUGACACACCUUCUGUGAGAGAUUAUGA | 0.015 ± 0.007 |
| UACAAUGUCACCUUCUCUGAGAGAUUAACA | 0.647 ± 0.026 |
| UAGUCUGUCACCGUUCUCUGAGAGAUUAACA | 0.651 ± 0.041 |

| Sequence | pre-steady-state target cleavage rate |
| --- | --- |
| AUCACUGUCCCCUUCUCUGAGAGAUUAACA | 0.71 ± 0.052 |
| UAGUGACUCACCUUCUUUGAGAGAUUAACA | 0.196 ± 0.021 |
| UAGUGACUCACCUUCUCUGAGAGAAUUUGA | 0.00468 ± 0.0036 |
| UAGUGUGUCACCUUCUGUGAGAGAUAAACA | 0.158 ± 0.02 |
| UAGUGUGUCACGUUCUCUGAGAGAUUUACA | 0.23 ± 0.031 |
| UAGUGACAGACCUUCUCUGACAGAUUAUCA | 0.00357 ± 0.0033 |
| UAGUGACACACCUUCUCUGAGAGAUAUUGA | 0.00583 ± 0.0043 |
| AUCACUGUCACCUUCUCUGAGAGAAUUUGA | 0.354 ± 0.089 |
| UAGUGACACACCUUCUCUUAGAGAUUAACA | 0.149 ± 0.016 |
| UAGUCAGUCUCCUUCUCUGAGAGAUUAACA | 0.45 ± 0.034 |
| UUCCACUGUCACCUUCUCUGAGAGAUUAACA | 0.601 ± 0.034 |
| UAGUCUGUCAGCUUCUCUGAGAGAUUUACA | 0.166 ± 0.022 |
| UAGUGACACACCUUCUCUGAGAGAUUAACC [g2:g22:cont:t1C] | 0.305 ± 0.037 |
| UAGUCUGUCACCUUGUCUGAGAGUUUAACA | 0.19 ± 0.041 |
| UUCACUGUCACCUUCUCUGAUAGAUUAACA | 0.611 ± 0.023 |
| UUCACUGUGACCUUCUGUGAGAGAUUAACA | 0.459 ± 0.025 |
| UACACUGUCACCUUCUCUGACAGAUAAACA | 0.0511 ± 0.014 |
| UAGUGUGACUCCUUCUCUGAGAGAUUAACA | 0.301 ± 0.026 |
| UAGUGACUCACCAACUCUGAGAGAUUAACA | 0.042 ± 0.0074 |
| UAGUGACUCAGCAUCUCUGAGAGAUUAACA | 0.00306 ± 0.0023 |
| UACACUGUCACCUUGUCUGAGAGAUUUACA | 0.989 ± 0.19 |
| AUCACUGUCACCUUCUCUCAGAGAUUAUCA | 0.057 ± 0.0091 |
| AUCACUGUCACCUUCUCUGAGAGAUUAGCA | 0.33 ± 0.046 |
| UAGUCUGUCACCAUCUCUGUGAGAUUAACA | 0.194 ± 0.015 |

| Sequence | pre-steady-state target cleavage rate |
| --- | --- |
| UAGUGUCUCACCUUCUCUGAGUGAUUAACA | 0.0236 ± 0.0054 |
| UAGACUGACACCUUGUCUGAGAGAUUAACA | 0.146 ± 0.022 |
| UAGUGACUGACCUUGUCUGAGAGAUUAACA | 0.0378 ± 0.011 |
| AUCACUGUCCCUUCUCUGAGAGAUUAACA | 0.666 ± 0.051 |
| UAGUGACAGUCCUUCUCUGAUAGAUUAACA | 0.101 ± 0.012 |
| UAGUCUGUCUCGUUCUCUGAGAGAUUAACA | 0.621 ± 0.039 |
| UUCACUGUCACCUUCUCUGAGAGGUUAACA | 0.262 ± 0.031 |
| AUCACUGUCCACCUUCUCUGAGAGAUUAACA | 0.612 ± 0.057 |
| UAGUGACAGACCUUCUCAGAGAGAUUAACA | 0.0153 ± 0.0041 |
| UUCACUGUCACCCUCUCUGAGAGAUUAACA | 0.643 ± 0.038 |
| AUCACUGUAACCUUCUCUGAGAGAUUAACA | 0.651 ± 0.03 |
| UAGUGACUCACCUACUCUGAGAGAUUUACA | 0.0965 ± 0.018 |
| UAGUGACUCACCUUCUCUGAGACUUUAACA | 0.00961 ± 0.0021 |
| UUCACUGUCACCUUCUCACAGAGAUUAAGA | 0.00698 ± 0.0037 |
| UUCACUGACACCUUCUCUGAGAGAUUUACA | 0.335 ± 0.06 |
| UAGUGUGUCACCUUCUCUGAGUCUUUAUGA | 0.00459 ± 0.004 |
| UAGUCUGUCACGUUCUGUGAGAGAUUAACA | 0.129 ± 0.014 |
| UAGACUGUCACCAAGUCUGAGAGAUUAACA | 0.124 ± 0.018 |
| UAGUGACUCACGUUCUCUGAGACAUUAACA | 0.00425 ± 0.0035 |
| UAGUGUGUCACCUUCUCUGUGUGAUUAACA | 0.00528 ± 0.0044 |
| UAGUGACAGUCCUUCUCUGUGAGAUUAACA | 0.0153 ± 0.0034 |
| UACACUGUCACCUUCUCUGAGAGAAAAAGA | 0.0162 ± 0.0086 |
| AUCACUGUCACGUUCUCUCAGAGAUUAACA | 0.0868 ± 0.0082 |
